The full ranking holds about 81,000 sequences; the median of “one-hybrid fitness for binding NBS DNA” is about -0.1, and the highest 2% start at about 0.36. The list shows a part of the results.
B1: Caulobacter ParB omega fusion; a variant is named by its letters at X, in order, B8GW30 (parent)
chain: MESVVVGEPGMSEGRRGLGRGLSALLGEVDAAPAQAPGEQLGGSREAPIEILQRNPDQPRRTFREEDLEDLSNSIREKGVLQPILVRPSPDTAGEYQIVAGERAWRAAQRAGLKTVPIMVRELDDLAVLEIGIIENVQRADLNVLEEALSYKVLMEKFERTQENIAQTIGKSXSHVANXMRLLXLPDEVQSYLVSGELTAXHARAIAAAADPVALAKQIIEGGLSVRETEALARKAPNLSAGKSKGGRPPRVKDTDTQALESDLSSVLGLDVSIDHRGSTGTLTITYATLEQLDDLCNRLTRGI

Variants of: B1
Experiment: one-hybrid fitness for binding NBS DNA (the Noc-binding site; scaled: cognate 1, non-cognate 0); higher = stronger binding
Settings: with NBS DNA site
Method in brief: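 Caulobacter ParB libraries with four specificity codons randomised were screened by bacterial one-hybrid selection in the E. coli USO strain, using a HIS3 reporter whose site lies 19 bp from the promoter. Selection ran for 48 hours at 37°C on M9 lacking histidine, with 0.1 mM IPTG and 5 mM 3-AT. Plasmids were Illumina-sequenced before and after selection, three replicate libraries were pooled, and variants with under 10 reads were dropped. Fitness is the log change in each variant's read ratio to wild type, rescaled against the cognate and non-cognate sites.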

one-hybrid fitness for binding NBS DNA, 0.435:
QQAS

one-hybrid fitness for binding NBS DNA, 0.257:
RKAC

one-hybrid fitness for binding NBS DNA, 0.364:
RYMT

one-hybrid fitness for binding NBS DNA, 0.332:
QKDS

one-hybrid fitness for binding NBS DNA, ≤ 0.2:
PYKA
LGGR
PTHE
EPVC
DCIM
QVVY
GQFC
DGSD
KTFV
QGVM
VNAN
IAYG
QNAR
LMSF
SIML
IPDY
LTFV
THNI
GELK
VDDL
NATY
TQVV
TCAW
SYLA
RWNQ
MYEG
AAAG
CFQG
DQHS
WGAA
KQWR
CFNE
YHLC
LSWN
MTTC
KHVR
CDSC
KHPI
TALT
TDTM
TCYR
ETNQ
NPEG
CYDR
HFAG
QDVI
PPMV
LESW
QSAF
IQLP
MESK
MLCM
CCER
LLKE
SLTQ
QVNH
IVLW
KFRE
LATV
NVIC
VTGV
RWEL
WFTC
IMKS
HAVW
CFLS
GMYS
LCMV
TWDF
IMTW
TMHM
TYTK
DTEY
TGRH
TSYM
VFSC
QSEE
RNSL
MNSS
GNHA
DHLS
AYFL
GGRI
GDIL
RGQW
QHQN
TWST
LSSY
LDVA
LRIG
MMDT
NSCD
MPPL
MTSR
VKGR
GSVP
SFHC
KDAD
AFAS
SMNL
LWYS
SPHG
LGVR
MAYI
KPVA
EQPT
FFIG
TILC
GPVN
RVCG
STNY
CKKR
AAVT
RIFW
ERAA
HWRV
HKLS
PNIC
REGC
RSHW
EIRR
EFTC
DNDK
SRGN
LWVD
ASCD
LNMQ
AAAT
QQFF
YAQS
ADAM
ANMN
ATCG
STPE
ARKV
RDVR
VCTD
ATLE
DNEF
IIHS
KSYN
GPVQ
YNHY
LSLV
RWNL
VTWS
VSYL
EATR
TQVS
TVLH
APAC
EESR
NAGR
PPEY
SLVN
QEMR
VEVT
NPTK
RNKM
MALE
YPRL
LNKG
MKIS
SEDT
PDIS
RWVG
PMHV
PAYS
DVLW
VHWV
REGN
LTGE
YICC
DPNL
DASC
HVRT
GIAW
EALF
GQIG
HHWS
QKHI
RAGV
QYTN
PFDP
DRAT
SMPN
MPWI
RQNW
WKND
NLAY
LGTL
SPAI
GVTR
KVST
VCWT
HNWR
AIVG
QLCY
QIPQ
RAFP
KRDW
TKFN
ANAG
QHQW
EMKT
KLST
PPLS
TMAS
TSKY
HCGS
SHNE
WLLS
NDSN
VSNM
DWMG
PIMG
EYHK
FHTW
AQAM
GRAP
AGAV
VYWR
ANNV
VERG
KNTD
IVKY
NADF
AFPG
GDDG
QNVE
VQLG
LQTC
VKNE
THGS
LERR
RQHM
TSVD
PFNG
PFRF
KGVG
HQNR
PTIL
PYNT
EGCR
VLVK
SRAK
CEWR
INAV
RRQL
VWYG
YSAK
ASLL
KFMF
CKRY
MEVA
PRTV
LNTY
SLQT
AIQS
LYPY
HECR
ALRF
AVSI
LLLF
FFPC
GYIT
LLQH
IEHV
LATC
KRVE
QDMR
HTNL
AESW
PPRI
KIIR
SAIE
HVVT
HTGT
MELC
CETT
LYIR
WNRS
PAIP
PIHW
RKPV
TSTN
VANP
NPMV
AGYW
RGLV
SNDL
SAKC
NMPF
RGFT

one-hybrid fitness for binding NBS DNA, 0.487:
RQTT

one-hybrid fitness for binding NBS DNA, 0.329:
RIQT

one-hybrid fitness for binding NBS DNA, 0.377:
QRKD

one-hybrid fitness for binding NBS DNA, 0.249:
QKYA

one-hybrid fitness for binding NBS DNA, 0.451:
IRNT

one-hybrid fitness for binding NBS DNA, 0.744:
QTKH

one-hybrid fitness for binding NBS DNA, 0.245:
QKNQ

one-hybrid fitness for binding NBS DNA, 0.348:
KKST
